Results on five molecules are retold here after PubChem BioAssay (NCI).

This experiment has as its system NCI-H322M lung. As to the kind of experiment: NCI-60 cell line screen, 48 h.

Structures are written as SMILES.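 Tested at 5 concentrations; 48 h exposure; 96-well plates; endpoints linearly interpolated, else capped at highest concentration. Here, GI50 denotes the concentration required for 50% inhibition of growth. The concentration for full growth arrest is given as TGI.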

For `C=C1CCC2C3(C)COC(c4ccccc4F)OC3CCC2(C)C1CC(O)C1=CCOC1=O` (stereo not given), the GI50 is 49.5 µM and the TGI was > 100 µM.

With `CCN1CCN(Cc2ccc(C(=O)Nc3cccc(C#Cc4cccc5[nH]nc(N)c45)c3)cc2C(F)(F)F)CC1`, the GI50 was 1.79 µM and the TGI stood at 5.58 µM.

Regarding `CCOc1ccccc1[C@H]1C(C(=O)c2ccc(Cl)cc2)C2(N[C@@H]1c1ccccc1)C(=O)Nc1ccc(Br)cc12` (stereo not given in full), the GI50 is 5.96 µM and the TGI was > 34.5 µM.

Take `COc1cc(OC)c2c3nc4cc(C)c(C)cc4nc3n(CCN(C)C)c2c1`: the GI50 was 12.7 µM and the TGI turned out to be 26.1 µM.

On to `O=S(=O)(Nc1cccc(-n2cnc3cc(-c4ccc(O)cc4)ccc32)c1)C1CC1`, for which the GI50 was 6.36 µM and the TGI was found to be 19.5 µM.
